In publication PMC12136788:
The list shows a part of the results.

T1: UNK ZnF1-3 (human, UniProt Q9C0B0 31-174)
T1 sequence: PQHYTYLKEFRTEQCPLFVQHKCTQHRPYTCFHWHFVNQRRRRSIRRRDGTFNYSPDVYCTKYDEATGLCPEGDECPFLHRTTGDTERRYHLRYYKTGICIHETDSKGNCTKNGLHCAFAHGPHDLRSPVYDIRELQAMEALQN

B1: 186738473_186740042_1061_3pUTR_ENSMUSG00000026620_ENSMUST00000027929|mouse|control|control (ssRNA)
RNA: GGGAGUUCUACAGUCCGACGAUCUUCAUCUCGUGCAAAACCCAUGGUGACCAUAAUGUCUAUUCUUUUUGCAUCGCUGAGAUCAAGCUCAGGCUCAGAGUACGGCUUUAGCUCUUCUUCCUCAUGACCAACAUUCAUCCAUCGCAACAGAGGAUUGAGCAUCA
B2: chr12:42180722:42180723:-_ENSMUSG00000036295_ENSMUST00000043884|mus_hu|FALSE|FALSE (ssRNA)
RNA: GGGAGUUCUACAGUCCGACGAUCCUGUAGGAGAAGAAUCUGUGUGUUAGCUGGCAAUCUGGCUGGGAAAGUUAAAAGACCUAAAUCAUUACAAUCCACUGUAGAUGCUUCCAUAUAAAUGGAUCUGGGUGUAAACCAAGGCCUCAACAGAGGAUUGAGCAUCA
B3: chr9:14812383:14812384:-_ENSMUSG00000031934_ENSMUST00000164273|mus_mus|mus_mus_mus_hu_True|98_98 (ssRNA)
RNA: GGGAGUUCUACAGUCCGACGAUCAUAGCCCAGGUAGAUACAUGCCAACAGUAUAAUGAUGAGUGUCAGCAGGCGGCAGCUAAUGUACUUGAUGAUUAAAUUAUUAGAAUUUUUCUUUGUCUUCAAGUACUGCUCCACAAUUGGCAACAGAGGAUUGAGCAUCA
B4: chr5:137520266:137520267:+_ENSG00000112984_ENST00000394894|hu_hu|motif|central (ssRNA)
RNA: GGGAGUUCUACAGUCCGACGAUCAUCAAGGCCUGUGUCUGCCUUAGCCCCUUUCUCUAAGCUGGGGGAUACCUGAAGACGGUGUUCCUUGAUGAACGAGUGCAGGGAUGGGAAUCCCAGUUGCAUAGGUGGGGCAUGCACAAGCAACAGAGGAUUGAGCAUCA
B5: chr4:17845017:17845018:+_ENSG00000109805_ENST00000514176|hu_mus|FALSE|FALSE (ssRNA)
RNA: GGGAGUUCUACAGUCCGACGAUCGCUCUCUUAACUUGUAUCUUCAUUAAGGAACUCUGCAAGGUUAAGUUUACUUUUCUGUAGCGCAGCUGUUUUGGCUCGUCUGGGUAAUCUCAUCUUCAUUUCUGAUGGUGGUUCAUGAUCCAACAGAGGAUUGAGCAUCA
B6: chr17:61910164:61910165:-_ENSG00000108604_ENST00000448276|hu_mus|motif|central (ssRNA)
RNA: GGGAGUUCUACAGUCCGACGAUCCAGUAAUAAGGCUUUGGGAACCAAGCAGUGAGGGAUCUAAAACUACAUUUAUGAAACGGAAGCUGGGGAGUGGAGGGUGACAGGAAACACACCUCACUCCAUCCUACAUGUCUGCAGCCCCAACAGAGGAUUGAGCAUCA
B7: chr16:94690367:94690368:+_ENSMUSG00000040785_ENSMUST00000117648|mus_mus|FALSE|FALSE (ssRNA)
RNA: GGGAGUUCUACAGUCCGACGAUCUCUGUAUUUGCCACUGCCUACAGGUCACUAAAAAUACCUAGUUUUUGAAUAGUUUCUAAUACAGUUAGCUUGUUUUCAGGCCACAUUACAAGAUUGCAUGCAUUACUUUACACAAAAGUCCAACAGAGGAUUGAGCAUCA
B8: chr9:49313425:49313426:-_ENSMUSG00000039542_ENSMUST00000166811|mus_mus|FALSE|FALSE (ssRNA)
RNA: GGGAGUUCUACAGUCCGACGAUCUUUUAAAGGCAAAAGACACUAGAGGAAUGUGUUUGUGUGUGCGUGUGUGUGUGUGUGUGUGUGUGUGUGUGUGUGUGUGUAUGUGAGAGAGAGAGAGGGGGGGGGAUUAUUUGGGGAUGCCAACAGAGGAUUGAGCAUCA
B9: chr22:32879901:32879902:+_ENSG00000100225_ENST00000397426|hu_mus|hu_hu_hu_mus_False|8_58 (ssRNA)
RNA: GGGAGUUCUACAGUCCGACGAUCCUCUUCCAUACUCAUGGCAUCCUGAAUUGACUCAGCUUCAACAUUUUGACUAGGCCCUAACAUACUGUCAUCAGUCCAGGCAUCAAAUGGGGUGGCCUGUCCUUGGAAUGAAUCAGUCCCCAACAGAGGAUUGAGCAUCA
B10: chr5:21252845:21252846:+_ENSMUSG00000029017_ENSMUST00000030882|mus_mus|FALSE|FALSE (ssRNA)
RNA: GGGAGUUCUACAGUCCGACGAUCGUUUGCGACCAUGAGACAGAUCGUGUCUGGAUGGGCCCAACCAACUGCUUCAACAGCUAUUGCAAGGUGCGCCAAUGGCAUCUUGUCAUCCCUCACCCGAAUCUCACUUCCAGUGAACUUCAACAGAGGAUUGAGCAUCA
B11: chr1:66829163:66829164:+_ENSG00000184588_ENST00000423207|hu_hu|FALSE|FALSE (ssRNA)
RNA: GGGAGUUCUACAGUCCGACGAUCUACAUCAGCAGCGUGCAGGCUGUUGUGAUAUGCCACGUCAGAAUGGUAAUGGUCUUCUAAAGUCAUCAUGUAGGUUAUAAAUGUGUCAGAUGAGAUUCUGAAUGUCUUUAGGAGGUCUCUCAACAGAGGAUUGAGCAUCA
B12: chr4:144460044:144460045:+_ENSG00000153147_ENST00000283131|hu_mus|hu_hu_hu_mus_False|78_88 (ssRNA)
RNA: GGGAGUUCUACAGUCCGACGAUCACGGUCCAUAGCCUGAAGAUCAACUUGGGGAUUCCAAUCAGAAUCAUAUAAAAUGACUACAUCAGCAGUUGCAAGAUUGAUGCCCAGACCACCAGCACGUGUGCUUAGCAUAAAUACAAACAACAGAGGAUUGAGCAUCA
B13: chr16:94646735:94646736:+_ENSMUSG00000040785_ENSMUST00000117648|mus_hu|FALSE|FALSE (ssRNA)
RNA: GGGAGUUCUACAGUCCGACGAUCAGUUUUUAACUUCUUCCAGCAAUUCAUGUGAAAUUCUAUUUUACAGUACUGGCAACAGCUGAUGCGUAUAAAACCCUUAAAGUCUGGAUCAGUUAUGUAUAUCUGGAUCUUAGAAUAUCCCAACAGAGGAUUGAGCAUCA
B14: chr4:57314706:57314707:+_ENSG00000128050_ENST00000264221|hu_mus|hu_hu_hu_mus_True|88_108 (ssRNA)
RNA: GGGAGUUCUACAGUCCGACGAUCCAGUAUUUCAAAUAUAGCUUGUGUAGCAUGACUCAUGAUGUCCACUUCAGUCUGCCCUAUAACAAGGCCAGCAAAACAGAAUUUUGCAGCAAUGAGUUGCUCCUCAGACCACUGUGGAUCCAACAGAGGAUUGAGCAUCA
B15: 196541394_196545002_1390_CDS_ENSG00000180370_ENST00000327134|human|control|control (ssRNA)
RNA: GGGAGUUCUACAGUCCGACGAUCCAAAAGUACAUUGUCACUUUUGAUGUCUCUGUGGAUCACUUGAUUAGCAUGUAAAAACUCCAAUGCCUGUAAACACUCUCUGCAUACAGCAGCAAUCUGUGCUUCAUCCAUGCACGUUUCCAACAGAGGAUUGAGCAUCA
B16: chr1:36605538:36605539:-_ENSMUSG00000026121_ENSMUST00000114991|mus_hu|FALSE|FALSE (ssRNA)
RNA: GGGAGUUCUACAGUCCGACGAUCUAGCCCCAUCAGAGCAAUCGUUUCAUUUUCUCCAUUUUAUUUGUCAAUAUAAAAAUACUCAAAUAUUUACAACAAAUAAAUACGCGGGGACACAAUAAGUUACACUGUUAGGAGCCCUCCCAACAGAGGAUUGAGCAUCA
B17: 152987062_152987182_84_3pUTR_ENSMUSG00000068040_ENSMUST00000089027|mouse|control|control (ssRNA)
RNA: GGGAGUUCUACAGUCCGACGAUCUAGUGAGGAGGUAAAAGAAGCUUAAUUUCUCCUUGGCAGAUUGGCCUUGGCAGUGAGGUCUCUGACUAGGUGAAGAGAACGUACGGUGUAACUAUUGGAGCCAUAUUGACUUCUGGCAGACAACAGAGGAUUGAGCAUCA
B18: chr2:91389038:91389039:+_ENSMUSG00000040549_ENSMUST00000099716|mus_hu|FALSE|FALSE (ssRNA)
RNA: GGGAGUUCUACAGUCCGACGAUCUAAUCCUUUCAAUUGAACCACUGCAUUGGAAUCAGUGACAAAUUUUUUGAUCAAUCCUAAAAAUUUGGACCACUCUGGGCUCUUUUCAUCCUUUAUUUUCUGGAAGAUCUUCAGGGCCUCCAACAGAGGAUUGAGCAUCA
B19: 7357879_7357999_720_CDS_ENSMUSG00000019795_ENSMUST00000163085|mouse|control|control (ssRNA)
RNA: GGGAGUUCUACAGUCCGACGAUCUAAAGGCACGUAUAUCACCCCCAUGAGAGGUUUCAUUUUGACACUGCCAUCUUGUAGCUUGUCAUACUGCUCCAACAUUUGGUUUCCUCCUGCAGGACCGACUGGCAAUAUCAAUCUUCCCAACAGAGGAUUGAGCAUCA
B20: chr13:67002414:67002415:-_ENSMUSG00000021520_ENSMUST00000021993|mus_mus|FALSE|FALSE (ssRNA)
RNA: GGGAGUUCUACAGUCCGACGAUCAUCCUUAGGCAAGAUCUGAUGCCUCAUAGUCAGGUCCAGGGCUCUCUUAAUUCGAAACAUCCUGUCAUUAUAAAGGUCCUCAGGAAGCCUUCUUAUGGCUUCUUUUACAUCUUCAGUUUCCAACAGAGGAUUGAGCAUCA
B21: chr7:130129250:130129251:+_ENSMUSG00000030779_ENSMUST00000052135|mus_hu|FALSE|FALSE (ssRNA)
RNA: GGGAGUUCUACAGUCCGACGAUCCUCCUCUGGUAAGAAGGGAGGUUUCUCUUUCUUCCCAAUUGCAUAUGCUUCUGCAUCUAUAGUUGGUAUUGCAUAUUUUCCAGUGUUGGUAAGCAUUGCACCUUUCAUAUUAGGAUCUUUCAACAGAGGAUUGAGCAUCA
B22: chr5:21280853:21280854:-_ENSMUSG00000029014_ENSMUST00000030771|mus_hu|FALSE|FALSE (ssRNA)
RNA: GGGAGUUCUACAGUCCGACGAUCCUUUGCUUCACUUUUAGAAGGAACUGAGUUAUCAAAAGUAGGAUCUACACUGUUAAAUGCUCGUCUUUUCACUGGAUCAGAUAACAUUUCAUAAGCUUUAGUUAUGCAAGUGAAGUAGUCCAACAGAGGAUUGAGCAUCA

These binders were tested against T1, UNK ZnF1-3 (assay: nsRBNS (natural sequence RNA bind-n-seq); RBNS binding buffer (assumed for nsRBNS): 25 mM Tris pH 7.5, 150 mM KCl, 3 mM MgCl2, 0.01% Triton X-100, 500 ug/ml BSA, 20 U/ml SUPERase-In, 4 C; UNK is unkempt and MSI1 is Musashi-1; names of the RNAs are library labels; protein concentration not given here; high values mean tight binding).

**Q.** Which binding signal does the source give for B1 here?
**A.** The binding signal was 0.836 enrichment R.

**Q.** For B2, which binding signal is on record?
**A.** The binding signal was 1.2 enrichment R.

**Q.** Which binding signal does the source give for B3 here?
**A.** The binding signal was 1.49 enrichment R.

**Q.** How did the binding signal turn out when B4 was run?
**A.** Its binding signal is 1.04 enrichment R.

**Q.** B5 was tested. Which binding signal did it give?
**A.** The binding signal was 0.404 enrichment R.

**Q.** For B6, which binding signal is on record?
**A.** The binding signal was 1.23 enrichment R.

**Q.** Which binding signal does the source give for B7 here?
**A.** The binding signal was 0.969 enrichment R.

**Q.** For B8, which binding signal is on record?
**A.** The binding signal was 1.16 enrichment R.

**Q.** B9 was tested. Which binding signal did it give?
**A.** Its binding signal is 1.39 enrichment R.

**Q.** For B10, which binding signal is on record?
**A.** Its binding signal is 0.465 enrichment R.

**Q.** With B11 as the binder, how does the binding signal read?
**A.** Its binding signal is 0.776 enrichment R.

**Q.** With B12 as the binder, how does the binding signal read?
**A.** The binding signal was 1.45 enrichment R.

**Q.** Which binding signal does the source give for B13 here?
**A.** The binding signal was 0.826 enrichment R.

**Q.** B14 was tested. Which binding signal did it give?
**A.** Its binding signal is 0.974 enrichment R.

**Q.** For B15, which binding signal is on record?
**A.** The binding signal was 0.591 enrichment R.

**Q.** Which binding signal does the source give for B16 here?
**A.** Its binding signal is 1.07 enrichment R.

**Q.** With B17 as the binder, how does the binding signal read?
**A.** Its binding signal is 0.885 enrichment R.

**Q.** For B18, which binding signal is on record?
**A.** The binding signal was 0.862 enrichment R.

**Q.** How did the binding signal turn out when B19 was run?
**A.** The binding signal was 0.652 enrichment R.

**Q.** How did the binding signal turn out when B20 was run?
**A.** Its binding signal is 0.536 enrichment R.

**Q.** For B21, which binding signal is on record?
**A.** The binding signal was 0.404 enrichment R.

**Q.** B22 was tested. Which binding signal did it give?
**A.** Its binding signal is 0.845 enrichment R.
